Here are results for 23 molecules from article PMC4336329 (PLoS ONE, 2015).

Structures are written as SMILES. About 14,000 (4.5%) of roughly 310,000 compounds showed an effect of 50% or more. The effect is printed as a negative number. The list shows a part of the results.
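Also: peak tail current of the secondary pulse compared with the same well before compound.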

The target of the experiment is human ether-à-go-go-related gene (hERG) potassium channel (human, UniProt Q12809). As to the kind of experiment: primary screen, population patch clamp on CHO cells stably expressing hERG.
human ether-à-go-go-related gene (hERG) potassium channel, sequence (Q12809 whole entry, looked up): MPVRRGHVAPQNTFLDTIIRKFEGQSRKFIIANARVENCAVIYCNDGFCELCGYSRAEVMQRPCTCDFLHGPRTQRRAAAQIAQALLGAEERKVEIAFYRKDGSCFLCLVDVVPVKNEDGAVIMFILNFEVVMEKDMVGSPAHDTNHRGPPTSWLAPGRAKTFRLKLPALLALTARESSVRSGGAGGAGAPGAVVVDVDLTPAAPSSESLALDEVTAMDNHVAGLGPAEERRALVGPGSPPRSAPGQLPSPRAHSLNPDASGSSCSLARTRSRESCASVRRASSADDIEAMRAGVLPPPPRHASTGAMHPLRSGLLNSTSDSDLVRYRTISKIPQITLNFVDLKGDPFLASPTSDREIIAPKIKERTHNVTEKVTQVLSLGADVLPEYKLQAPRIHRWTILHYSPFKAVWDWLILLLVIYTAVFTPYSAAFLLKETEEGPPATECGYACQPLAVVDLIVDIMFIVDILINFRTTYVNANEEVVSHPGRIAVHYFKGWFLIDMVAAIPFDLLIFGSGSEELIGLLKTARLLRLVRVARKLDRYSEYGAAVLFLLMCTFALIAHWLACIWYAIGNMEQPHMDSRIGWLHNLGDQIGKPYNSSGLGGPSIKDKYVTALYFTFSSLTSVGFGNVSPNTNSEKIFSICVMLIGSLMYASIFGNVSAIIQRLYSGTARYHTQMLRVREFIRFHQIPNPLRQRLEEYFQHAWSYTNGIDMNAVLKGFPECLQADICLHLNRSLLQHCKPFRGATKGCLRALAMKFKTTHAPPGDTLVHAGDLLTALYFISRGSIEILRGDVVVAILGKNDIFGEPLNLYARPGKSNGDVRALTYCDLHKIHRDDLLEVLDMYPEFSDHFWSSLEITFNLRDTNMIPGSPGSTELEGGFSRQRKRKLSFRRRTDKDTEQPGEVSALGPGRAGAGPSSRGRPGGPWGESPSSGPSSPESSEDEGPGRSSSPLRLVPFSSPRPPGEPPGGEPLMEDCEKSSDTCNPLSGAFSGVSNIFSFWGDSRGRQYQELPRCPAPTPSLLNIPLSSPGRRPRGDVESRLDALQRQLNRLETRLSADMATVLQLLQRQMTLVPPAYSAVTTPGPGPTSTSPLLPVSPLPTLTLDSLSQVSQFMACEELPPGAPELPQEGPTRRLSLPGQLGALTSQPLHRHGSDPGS
Regarding `Cn1c(Cc2ccccc2)nnc1SCCC(=O)Nc1ccccc1`, the “hERG current change (%, negative = inhibition) at 10uM” value is recorded as -0.0706%.
With `CN1/C(=C/C(=O)CSc2ccccc2C(=O)O)C(C)(C)c2ccccc21`, the “hERG current change (%, negative = inhibition) at 10uM” value is listed as 8.23%.
Regarding `O=C(NC1CCCC1)C(Cc1ccccc1)n1cccc1` (centres unmarked), the “hERG current change (%, negative = inhibition) at 10uM” value was 0.725%.
As to `COc1cccc(NC(=O)CN(C)C(=O)c2cc(-c3ccco3)nc3ccccc23)c1`, the “hERG current change (%, negative = inhibition) at 10uM” value is -21.8%.
With `CC(=O)NS(=O)(=O)c1ccc(NC(=O)CN2C(=O)C3C4C=CC(C4)C3C2=O)cc1` (centres unmarked), the “hERG current change (%, negative = inhibition) at 10uM” value is reported as 7.3%.
Regarding `COc1cccc(NC(=O)CC2Oc3ccccc3NC2=O)c1` (centres unmarked), the “hERG current change (%, negative = inhibition) at 10uM” value is 9.38%.
In the case of `CO[C@@]1(NC(=O)C2SC(=C(C(N)=O)C(=O)O)S2)C(=O)N2C(C(=O)O)=C(CSc3nnnn3C)CS[C@@H]21` (some centres unmarked), the “hERG current change (%, negative = inhibition) at 10uM” value is recorded as 13.6%.
Take `O=C(OCc1nc2scc(-c3ccccc3)c2c(=O)[nH]1)c1cc([N+](=O)[O-])ccc1Cl`: the “hERG current change (%, negative = inhibition) at 10uM” value was 12.7%.
Take `O=C(c1ccc(COc2ccccc2Br)o1)N1N=C(C(F)F)CC1(O)C(F)F` (centres unmarked): the “hERG current change (%, negative = inhibition) at 10uM” value is 8.69%.
Take `O=C(OCC(=O)N1CCCc2ccccc21)c1cccc(S(=O)(=O)N2CCc3ccccc32)c1`: the “hERG current change (%, negative = inhibition) at 10uM” value is -12.4%.
`Cc1ccc(NC(=O)CCn2cccc2)cc1C`: the “hERG current change (%, negative = inhibition) at 10uM” value is listed as 19%.
For `Cc1ccccc1OCC(=O)N(Cc1nc(-c2ccccc2)no1)C(C)C` the value was -15%.
As for `C[C@H](NC(=O)c1ccccc1Cl)C(=O)OCC(=O)NNC(=O)c1cccs1`, the “hERG current change (%, negative = inhibition) at 10uM” value is reported as 3.67%.
On to `Nc1nc(SCC(=O)Nc2ccc(OC(F)(F)F)cc2)[nH]c(=O)c1NC(=O)c1ccc(Br)o1`, for which the “hERG current change (%, negative = inhibition) at 10uM” value turned out to be 28.2%.
Consider `N#CC1=C(C2CC2)CC(c2ccccc2)C(C#N)=C1N` (centres unmarked), for which the “hERG current change (%, negative = inhibition) at 10uM” value was -4.32%.
Take `COc1ccc(C(C)=O)cc1CC(C(=O)c1ccc(C)c(C)c1)N(C)C` (centres unmarked): the “hERG current change (%, negative = inhibition) at 10uM” value was -1.98%.
In the case of `COc1ccc(CCn2c(=N)c(C(=O)NCc3ccco3)cc3c(=O)n4cccc(C)c4nc32)cc1`, the “hERG current change (%, negative = inhibition) at 10uM” value was -75.6%.
For the molecule `NS(=O)(=O)c1ccc(NC(=S)Nc2cc(Cl)c(Cl)cc2Cl)cc1`, the “hERG current change (%, negative = inhibition) at 10uM” value is listed as 29.9%.
For `O=C(NCc1ccccc1)c1cccc(NC(=O)c2ccco2)c1`, the “hERG current change (%, negative = inhibition) at 10uM” value was determined as 2.1%.
With `O=C(COc1ccc([N+](=O)[O-])cc1)Nc1ccc2c(c1)OCO2`, the “hERG current change (%, negative = inhibition) at 10uM” value is -1.79%.
Turning to `COc1ccc(NC(=O)C2CCC(N3C(=O)C4C5C=CC(C5)C4C3=O)CC2)cc1` (centres unmarked), the “hERG current change (%, negative = inhibition) at 10uM” value is recorded as -10.3%.
With `Cc1[nH]nc2ncc(C(=O)c3ccccc3O)cc12`, the “hERG current change (%, negative = inhibition) at 10uM” value was found to be 8.54%.
As to `CCCC(=O)Nc1ccc(C(=O)n2ccc(C)n2)cc1`, the “hERG current change (%, negative = inhibition) at 10uM” value was found to be 4.49%.
